Measurements from US11384098B2, “Pyrrolobenzodiazepine-antibody conjugates” (priority 2017, dated 2022).

How the values were obtained:
[1] = Rat toxicology study, single intravenous dose tolerability and pharmacokinetics
[2] = test system: human liver cancer LI1097 tumour; test: In vivo anti-tumor activity in liver cancer patient-derived xenograft (PDX) LI1097 model; set-up: species or system BALB/c nude mice; conditions: for tumour growth: qd×1, up to day 51
From the text: In vivo anti-tumor activity in liver cancer patient-derived xenograft (PDX) LI1097 model LI1097 seed tumours were revived subcutaneously in NOD/SCID mice, and maintained subcutaneously in BALB/c nude mice before implantation. When the tumour volumes reached 700-1500 mm^3, tumours were collected and cut into pieces of about 2-3 mm3 in diameter. The tumours or tumour pieces were washed with ice cold RPM11640 media (without serum) and subsequently placed into ice cold media for use.
The skin of five-to-six week old, female BALB/c nude mice was disinfected at the right flank by iodophor before tumour implantation. Each mouse was inoculated without anesthesia, subcutaneously at the right upper flank with one primary human liver cancer LI1097 tumour fragment for tumour development.
After tumour inoculation, the animals were checked daily for morbidity and mortality. Tumour size was measured by caliper twice weekly in two dimensions. The tumour volume was expressed in mm^3 using the formula: TV=0.5 a×b2 where a and b are the long and short diameters of the tumour, respectively.
On study day 12, mice were randomised into 5 groups of 8 mice each; the mean tumour volume was ˜170 mm^3 across the cohort. Mice were dosed with the test agents on study day 13 (day 1, indicated by vertical dotted line in the graph). Test mice in this study received a single dose of their allocated test article and dose level on day 1 and tumour growth was monitored thereafter, up to day 51.

[3] = test system: Lu-135 cells; test: In vitro cytotoxicity of ConjA1, CellTiter-Glo; assay type: cell-based; conditions: cell viability
Method: (§1) Flasks of either Lu135 cell or SK-N-FI cells were trypsin treated and the liberated cells were washed and re-suspended in fresh medium. The cell density was determined by mixing 1:1 with Trypan blue (0.4% (w/v) Sigma TB154) and counting clear/blue (live/dead) cells with a Luna II automated cell counter (Logos Biosystems). The cell suspension was diluted to the required seeding density (20×104/m1), dispensed into white 96-well flat bottomed microplates (50 μl/well) and incubated overnight.
(§2) A stock solution (1 ml) of ConjA1 (20 μg/ml) was made by dilution of filter-sterile ConjA1 into the same cell culture medium. A set of 8× 10-fold dilutions of stock ConjA1 was made in a sterile 24-well plate by serial transfer of 100 μl into 900 μl of cell culture medium. Each ConjA1 dilution was dispensed, 50 μl/well, into 4 replicate wells of the 96-well plate, containing cells suspension. Control wells received the same volume of culture medium only.
(§3) After the ConjA1 exposure period, cell viability was measured by Promega CellTiter-Glo by adding 100 μl/well, agitate for 2 mins and read on the Envision using the Luminescence protocol. Data were analysed using Graphpad Prism software.

[4] = test system: SK-N-FI cells; test: In vitro cytotoxicity of ConjA1, CellTiter-Glo; assay type: cell-based, human; conditions: cell viability
Method: as §1, §2, §3

[5] = test system: SK-N-FI xenograft; test: In vivo anti-tumor activity in the neuroblastoma SK-N-FI xenograft model; conditions: for tumour growth: qd×1, intravenous
[6] = test system: A204 cells; test: In vitro cytotoxicity in 2D and 3D cell culture; assay type: cell-based
Method: (§4) Cells were seeded in onco-media (RPMI, 5% FBS, 2 mM L-alanyl-L-glutamine, 1 mM sodium pyruvate and 1% penicillin/streptomycin) in 384-well Elplasia plates pre-coated with pHEMA.
(§5) The ADC, ConjA1, and B12-1601 compounds were added 24 hours post cell seeding, with a starting concentration of 10 mg/mL, a 10-fold serial dilution across 9 concentrations in quadruplicate. The incubation times with the ADC's compounds were 5 days in 2D- and 7 days in 3D-cultures with media exchanges every 3 days, for a total of 14.
(§6) At the end of incubation period, cells were lysed and analyzed to determine cell viability. Cell proliferation end-point was analyzed as Percent of Control (POC) using the following formula: POC=relative cell count (compound wells)/relative cell count (vehicle control wells)×100%
(§7) Data were analysed using Graphpad Prism software.

[7] = test system: Hep3B cells; test: In vitro cytotoxicity in 2D and 3D cell culture; assay type: cell-based
Method: as §4, §5, §6, §7

[8] = highest dose tested (1.0 mg/kg), single dose
[9] = highest dose tested (1.0 mg/kg), day 60

B1: ConjA1 (conjugate)
heavy: QVQLVQSGAEVKKPGASVKVSCKGSGYTFTDYAMHWVRQAPGQGLEWIGVISTYYGNTNYNQKFKGKATMTVDKSTSTAYMELRSLRSDDTAVYYCARGGLREYYYAMDYWGQGTMVTVSS[human IgG1 constant region not shown]
light: DIVMTQSPDSLAVSLGERATINCKSSQSLLNSSNQKNYLAWYQQKPGQPPKLLVYFASTRESGVPDRFSGSGSGTDFTLTISSLQAEDVAVYYCQQHYSTPPTFGQGTKLEIKRTVAAPSVFIFPPSDEQLKSGTASVVCLLNNFYPREAKVQWKVDNALQSGNSQESVTEQDSKDSTYSLSSTLTLSKADYEKHKVYACEVTHQGLSSPVTKSFNRGEC
[1]; 5 mg/kg single intravenous dose
  bodyweight, lighter than the control group at the end of the study: around 15%
[1]; 5 mg/kg single intravenous dose, male rats
  clinical tolerability: clinically well tolerated
[1]; 5 mg/kg, day 8
  neutrophils reduced compared to concurrent control: around 95%
  white blood cell count: reduced
[1]; rat, 5 mg/kg
  half-life: 220 h
[1]; single intravenous dose
  MTD in rats: at least 5 mg/kg
[2]; 0.3 mg/kg, second after 1.0 mg/kg
  tumour growth: slowing of tumour growth
[2]; 1.0 mg/kg
  tumour growth: greatest slowing of tumour growth
[2]; [8]
  CR: 2/8
  PR: 3/8
[3]
  EC50 against Lu-135 cells: 0.01765 µg/mL
[4]
  EC50 against SK-N-FI cells: 0.1565 µg/mL
[5]; 0.5 mg/kg, second after 1.0 mg/kg
  tumour growth: slowing of tumour growth
[5]; 1.0 mg/kg
  tumour growth: greatest slowing of tumour growth
[5]; [9]
  complete responder (CR): 4/9
  partial responders (PR): 1/9
  tumor-free survivor (TFS) at the end of the study: one
[5]; single dose at 0.5 or 1 mg/kg
  anti-tumor activity compared to vehicle- and isotype control ADC-treated mice: dose-dependent anti-tumor activity
[6]; 2D culture, 5 days incubation
  IC50 2D: 0.006399 µg/mL
[6]; 3D culture, 7 days incubation
  IC50 3D: 0.00146 µg/mL
[7]; 2D culture, 5 days incubation
  IC50 2D: ~59.29 µg/mL
[7]; 3D culture, 7 days incubation
  IC50 3D: 0.2271 µg/mL
